Source: the supplement of paper PMC3334620
In all, about 33,000 sequences were measured (“E-score (-0.5 to 0.5)”: median about -0.032, highest 2% from about 0.36 on). Some of the results follow.

target: T1, Sko1 (UniProt Q02100); assay: PBM E-score (8-mer binding enrichment) (E-score (-0.5 to 0.5)); higher = stronger / more preferred TF binding; most listed sequences are background and not binding sites; conditions: protein concentration: 200 nM; construct: GST-full length
T1 sequence: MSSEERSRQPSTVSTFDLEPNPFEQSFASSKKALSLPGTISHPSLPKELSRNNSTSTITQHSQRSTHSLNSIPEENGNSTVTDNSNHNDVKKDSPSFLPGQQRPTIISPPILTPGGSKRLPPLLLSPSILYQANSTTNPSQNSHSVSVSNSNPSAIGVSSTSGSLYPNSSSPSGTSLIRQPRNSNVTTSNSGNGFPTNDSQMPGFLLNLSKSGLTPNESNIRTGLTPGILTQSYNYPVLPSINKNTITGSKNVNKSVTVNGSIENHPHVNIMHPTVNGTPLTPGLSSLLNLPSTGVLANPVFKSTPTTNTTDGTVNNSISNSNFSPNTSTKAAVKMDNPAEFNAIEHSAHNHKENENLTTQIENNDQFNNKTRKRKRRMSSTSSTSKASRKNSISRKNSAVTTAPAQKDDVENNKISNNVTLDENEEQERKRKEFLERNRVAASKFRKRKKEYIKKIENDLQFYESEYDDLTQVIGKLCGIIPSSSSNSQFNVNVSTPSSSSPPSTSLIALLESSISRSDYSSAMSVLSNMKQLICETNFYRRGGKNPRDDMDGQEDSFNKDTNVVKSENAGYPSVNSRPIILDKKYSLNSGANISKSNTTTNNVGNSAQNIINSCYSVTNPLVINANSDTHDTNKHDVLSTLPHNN
Description: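 Universal 'all 10-mer' protein binding microarrays (Agilent AMADID 015681) probed with GST-tagged S. cerevisiae TFs (full-length or DBD) made by in vitro transcription/translation (PURExpress), about 100-200 nM. Bound TF was detected with fluorescent anti-GST. Each ungapped 8-mer (which stands for itself and its reverse complement) is scored by the PBM enrichment score (E-score), a modified Wilcoxon-Mann-Whitney statistic from -0.5 to +0.5, computed with the Universal PBM Analysis Suite. Scale: above 0.35 generally sequence-specific binding.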

Row | Sequence | PBM E-score
1 | ACAGTTTA | 0.0292
2 | GGGGATAC | -0.115
3 | CAAGTCAC | 0.0504
4 | GAGCACCC | -0.333
5 | CAGATTTC | -0.0944
6 | CGGATTAC | 0.193
7 | CCTAGAGC | -0.38
8 | CACGCCTA | 0.0673
9 | GGCTTTCA | 0.055
10 | GTTTCACA | 0.147
11 | CGTTGGAG | 0.0224
12 | GCCGCCCA | -0.211
13 | GACTGCCA | -0.0422
14 | ACGTGCCC | 0.34
15 | ACGCACAA | 0.262
16 | AGTCAAAG | -0.026
17 | AATGAAGG | -0.0596
18 | CCTCGATA | 0.00048
19 | GCTTCCTA | 0.0147
20 | AACAAACG | 0.186
21 | AGTCTGGA | -0.153
22 | TCTCTACA | 0.00601
23 | GCGGTCCC | -0.234
24 | ATGAAAGC | 0.13
25 | TTAGGGAA | -0.0461

Row | Sequence | PBM E-score
26 | CAGAGAAC | 0.00541
27 | AGGCACGA | 0.0425
28 | ATAACGTC | 0.425
29 | GCTTGAAA | 0.0634
30 | GCGCTTCC | -0.0663
31 | GGCAGACA | -0.18
32 | GCCCCAAA | -0.197
33 | TCGCTTCA | -0.13
34 | CTTTGTCA | 0.0775
35 | ACCGCAAG | 0.0178
36 | AGGAATGG | 0.003
37 | GATCATAC | 0.14
38 | AGACTTCC | -0.329
39 | CGACCTAG | -0.00293
40 | AATACACC | 0.0896
41 | ATACAAGC | -0.0788
42 | CGACTGGC | -0.248
43 | ACATGTGA | 0.198
44 | CTGTTGAC | 0.0361
45 | CAGGGTGG | -0.3
46 | ACTTTATA | 0.151
47 | CAAAATAA | 0.122
48 | AGATACGC | 0.264
49 | ACGTCCTC | 0.206
50 | GATGACCA | 0.0721

Row | Sequence | PBM E-score
51 | ATTCTACC | 0.00672
52 | CACATATC | 0.0388
53 | ATCTGAGA | -0.0991
54 | ATTGACTC | -0.0271
55 | ATGTTCGA | 0.0746
56 | GTCAGGGA | -0.102
57 | AGCATAAC | 0.0904
58 | GCTCGGTA | -0.129
59 | TACGGATA | 0.137
60 | ATAAACAT | 0.233
61 | GAATTGGC | -0.128
62 | GTATGCAA | 0.177
63 | AACCGGTA | -0.0378
64 | ACCGTGTA | 0.0645
65 | CAATCCAC | -0.0544
66 | TAAGCTGA | -0.0396
67 | CTGAAGAA | -0.213
68 | CTCACCAC | -0.0734
69 | TAACCTAA | 0.166
70 | TCATATAA | 0.187
71 | ATCGAATA | -0.0264
72 | AGCTGCCT | -0.263
73 | TAAATTCA | 0.176
74 | CCACCAGA | -0.082
75 | GTACATCA | 0.366

Row | Sequence | PBM E-score
76 | CTCTAGAA | -0.157
77 | GGGAGAGA | -0.331
78 | CCTTGGGC | -0.311
79 | AGCTTTAG | 0.0249
80 | GGGCACAA | -0.303
81 | ACGGTCCG | -0.185
82 | GTCGAAGA | 0.0177
83 | CGTAGACG | 0.278
84 | CGACGTAC | 0.412
85 | GCGTGTAA | 0.0982
86 | AACAACTC | -0.0934
87 | CGCCCTAC | -0.113
88 | ATATGAGA | -0.0796
89 | CCCATTAG | -0.254
90 | ACTAATTG | 0.00529
91 | GAACGTGC | -0.0481
92 | ACGTCGAG | 0.254
93 | GAGAGTGC | 0.0123
94 | CGTGCAAA | 0.166
95 | GGCAAACA | 0.159
96 | CCAGATCC | -0.342
97 | CGACTGCA | -0.0683
98 | AACCGACT | -0.131
99 | AACAAACC | 0.0553
100 | AGTGACTA | -0.0228

Row | Sequence | PBM E-score
101 | ACAGATGC | -0.0202
102 | CTCAAGAC | -0.0102
103 | ACCTATAG | -0.0953
104 | AGGCCATG | -0.078
105 | GCAAAAAC | 0.0349
106 | CCTCATAC | 0.195
107 | TCAGTAAA | 0.225
108 | CTCACCCC | -0.198
109 | GTTAACTA | 0.119
110 | CGCCGCGA | -0.0222
111 | CGTCCCAA | -0.0678
112 | CATCTCCC | -0.332
113 | ATGAAAAT | 0.195
114 | ATGGCCAC | -0.0519
115 | TAAGAGGA | -0.0658
116 | CAGTTCAG | -0.112
117 | AAAATTAC | 0.266
118 | AAGGCGAG | -0.282
119 | GTTGAAAA | -0.037
120 | CCGTCTAA | -0.207
121 | CTGTAAGA | -0.00039
122 | ACGGCACA | -0.172
123 | AACGGACT | -0.156
124 | GTTTATTA | 0.345
125 | ACATCCAA | 0.128

Row | Sequence | PBM E-score
126 | GTCCTCCA | -0.134
127 | ATCGGAAG | 0.138
128 | TAATAGTA | 0.175
129 | CCTAGGAG | -0.18
130 | GGGCGGAA | -0.264
131 | CCGATCAA | -0.169
132 | GGATGAAC | -0.0118
133 | GTCGGCCA | -0.0498
134 | CCCTAAAA | -0.0699
135 | ACCAAGCG | -0.138
136 | CCCCCCAC | -0.372
137 | TACATGTA | 0.177
138 | CCAGACTA | -0.21
139 | CCAATTAG | 0.105
140 | ATGGGACC | -0.0278
141 | CTCGGGAA | -0.14
142 | CTAGCGCA | -0.113
143 | AGTAACAC | -0.0531
144 | CAGAGCTA | -0.201
145 | AAAAGATT | 0.0227
146 | CGCACAAG | -0.0732
147 | CACATTTC | 0.057
148 | CAATACAA | 0.0426
149 | GGTGCCTA | -0.12
150 | CATAACTA | 0.194

Row | Sequence | PBM E-score
151 | GAGGAGAA | -0.177
152 | CAGGGAGC | -0.26
153 | CTCAGTGC | -0.187
154 | CGGGTACG | 0.113
155 | CTTAGCCA | -0.122
156 | ACGAAGAG | 0.104
157 | AGAGCTAA | -0.0806
158 | CCGGATGC | -0.363
159 | AAGGAGAA | -0.0338
160 | ATAGTTGA | 0.169
161 | ATACTCTG | -0.0765
162 | ACCCAACA | -0.208
163 | CTTGATTC | 0.0171
164 | ATCTAATC | 0.246
165 | CTAGTAAG | 0.0111
166 | ACAGAAGG | -0.333
167 | CTTGAGTA | -0.183
168 | ACGCTACT | -0.0478
169 | ATTTATAA | 0.284
170 | AGATCATC | -0.0114
171 | CAGGCAGC | -0.349
172 | CGGCACAC | -0.123
